Measured values published in the supplement of paper PMC11417369.
± gives the standard deviation of the averaged measurements. This is one part of the list.

What follows are sequences tested on PfAP2-EXP AP2 domain (GST-tagged) (assay: gcPBM binding intensity (ln(normalized median fluorescence intensity)); higher = stronger DNA binding).
How it was run: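 Binding intensity values are the highest Masliner-normalised natural-log median intensity among replicate spots of either probe orientation. The binding step lasted 1 h in 1× PBS with 1% milk, 0.2 mg/ml BSA, 0.5% salmon testes DNA and 0.03% Triton X-100, using GST-tagged P. falciparum DNA-binding domains expressed in E. coli on an Agilent 4 × 180k array of primer-extended double-stranded 36-bp intergenic genomic probes plus negative controls. Alexa488 anti-GST antibody and a 488 nm scan detected bound protein.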
In the case of “TATAAATATTTATACACACACACATTAATACCTATA [CACACA_site7604]”, the “gcPBM binding intensity (ln)” value is reported as 8.89 ± 0.33.
In the case of “AGAAAGAAGATATATACACACAAAAAAAGATATATA [CACACA_site6779]”, the “gcPBM binding intensity (ln)” value is reported as 8.79 ± 0.4.
For “TTTTGTTAAAAAGATGTATATTTTATAAATATTTAT [CACACA_negctrl_site101]”, the “gcPBM binding intensity (ln)” value was 8.01 ± 0.45.
With “AAATAAAATAAATAATATAAAATAATATATAAAAAA [CACACA_negctrl_site1777]” the “gcPBM binding intensity (ln)” value was 8.35 ± 0.35.
In the case of “ATTTTTAAATACAGTACACACATGGGTTTAAATTAT [CACACA_site2884]”, the “gcPBM binding intensity (ln)” value is reported as 8.63 ± 0.38.
“TATTCTAGAATTTTAACACACAAGAATATAAACTTT [CACACA_site6757]” was tested, and the “gcPBM binding intensity (ln)” value was 8.26 ± 0.4.
With “TATTTATATTTATATACACACATATATACCTATATA [CACACA_site7820]” the “gcPBM binding intensity (ln)” value was 8.43 ± 0.35.
“GATTATTTTAGAAGTACACACATTTATATATAATAA [CACACA_site5429]” was tested, and the “gcPBM binding intensity (ln)” value was 8.61 ± 0.13.
For “TCCTATAAACAAATTTGTACATATAAGAATATATTC [XGTACX_site3892]”, the “gcPBM binding intensity (ln)” value was 8.62 ± 0.38.
With “TTATTATTCTTAAGGATATAACAAAAAAGAAAAATT [CACACA_negctrl_site1402]” the “gcPBM binding intensity (ln)” value was 8.47 ± 0.5.
In the case of “GGTTATATGATAGGATGTACAATTAAAAGTAAATAT [XGTACX_site5083]”, the “gcPBM binding intensity (ln)” value is reported as 8.86 ± 0.38.
“TAAAATATAATGATCACACATATAAACAAGTGGGTA [CACACA_site4651]” was tested, and the “gcPBM binding intensity (ln)” value was 8.58 ± 0.42.
With “TATGGATAAATAAATACACACATAAATTTAAATATA [CACACA_site1282]” the “gcPBM binding intensity (ln)” value was 8.58 ± 0.47.
“GCCGCACCCAGATACGCACACAAGAAAAAAATATTC [CACACA_site3456]” was tested, and the “gcPBM binding intensity (ln)” value was 8.63 ± 0.26.
For “TGAACATTATAGAAAAGTACTTAGTTTTTAAAAAGA [XGTACX_site6864]”, the “gcPBM binding intensity (ln)” value was 8.57 ± 0.42.
With “TATTCAAAACGGTATTGTACAAATTTTATAATTTAA [XGTACX_site6928]” the “gcPBM binding intensity (ln)” value was 8.34 ± 0.47.
In the case of “TATAAACGCACCTACACACACAACGTAAATGCATTG [CACACA_site7120]”, the “gcPBM binding intensity (ln)” value is reported as 9.1 ± 0.16.
With “ATGTGTTTGTATATATGTACATATTTATGTTATTTC [XGTACX_site6960]” the “gcPBM binding intensity (ln)” value was 9.02 ± 0.52.
For AATTTAATTGTGAGAGTGCGTACTGCTCCACATATA, the “gcPBM binding intensity (ln)” value was 8.61 ± 0.28.
For “TATATATATAAATACACACACACAAAAAAAAAAAAA [CACACA_site4930]”, the “gcPBM binding intensity (ln)” value was 8.6 ± 0.34.
With “AAAAAAAAAAAAAAAAAAAAAAAAAAATGAGATACA [GTGCAC_negctrl_site160]” the “gcPBM binding intensity (ln)” value was 9.09 ± 0.014.
With “TTTTGATATATGAATATTAAGTTATATAATATTTTA [TGCATGCA_negctrl_site39]” the “gcPBM binding intensity (ln)” value was 7.92 ± 0.28.
For “TACAGTAAAAATAGTTGTACTTGTTTATTTCTTCTT [XGTACX_site7674]”, the “gcPBM binding intensity (ln)” value was 8.37 ± 0.38.
With “AAAAGGATATATGAAAGTACAAAGGTATAGTATATT [XGTACX_site7385]” the “gcPBM binding intensity (ln)” value was 9.02 ± 0.31.
For “ATAATACCAGAATAGATTTAAATGAATATTTTATTT [CACACA_negctrl_site476]”, the “gcPBM binding intensity (ln)” value was 8.22 ± 0.44.
“ATCTTATCATTTTAAAGTACATAATTAATTCTTTTT [XGTACX_site3999]” was tested, and the “gcPBM binding intensity (ln)” value was 8.59 ± 0.36.
In the case of “TATAACAAATAAAAATGTACATATATATAATATATA [XGTACX_site6173]”, the “gcPBM binding intensity (ln)” value is reported as 8.4 ± 0.64.
For “ATGATATATTTAATAGTGCACTAATTAAAATTATTA [GTGCAC_site9418]”, the “gcPBM binding intensity (ln)” value was 8.43 ± 0.071.
With “TATTTATTTATTTTGTTATAATTAAAATGGATACAT [XGTACX_negctrl_site387]” the “gcPBM binding intensity (ln)” value was 8.24 ± 0.33.
“CTACACACTTATAAATGTACAGGATTTAAGTATATG [XGTACX_site8245]” was tested, and the “gcPBM binding intensity (ln)” value was 8.39 ± 0.33.
“AGTAGTCTGGAGAAGAGTACATAGTATCTGGTAGCT [XGTACX_site2017]” was tested, and the “gcPBM binding intensity (ln)” value was 8.71 ± 0.35.
With “AAATATAATAATACATTGCACATATATTATATATAT [TGCATGCA_negctrl_site611]” the “gcPBM binding intensity (ln)” value was 8.565 ± 0.049.
“TGTAATAATCTTCATTTCTTTTTTTTTTTTTTTTGT [CACACA_negctrl_site1388]” was tested, and the “gcPBM binding intensity (ln)” value was 8.17 ± 0.24.
For “AGTGAATATTACGAAACACACAAAAAAATACATTTC [CACACA_site511]”, the “gcPBM binding intensity (ln)” value was 8.74 ± 0.31.
In the case of “TAACTTAATAAAAAAAGTACATATATTTTTAATAAA [XGTACX_site2707]”, the “gcPBM binding intensity (ln)” value is reported as 8.18 ± 0.16.
GTTTATATGTTCATAGTGCATATATGTTGATTTATT was tested, and the “gcPBM binding intensity (ln)” value was 8.77 ± 0.29.
With “TATAAAAAAAAAAAAAAAAAAAAAAAAAAAAAAAAA [TGCATGCA_negctrl_site42]” the “gcPBM binding intensity (ln)” value was 7.88 ± 0.46.
For “TTTTTTTTTTTTTACTGTACTTAATAAGATTGAATA [XGTACX_site2384]”, the “gcPBM binding intensity (ln)” value was 8.49 ± 0.48.
With “CAGGAGAGAAAATATCGTACAAGCAAAAATAAGTGG [XGTACX_site8557]” the “gcPBM binding intensity (ln)” value was 9.01 ± 0.49.
In the case of “AAATTATAAAAATGTAGTACAGACAATATATTCGTA [XGTACX_site8307]”, the “gcPBM binding intensity (ln)” value is reported as 8.75 ± 0.49.
“ATAAATATTATTTTACGTACATATTTATGAAGTATT [XGTACX_site8746]” was tested, and the “gcPBM binding intensity (ln)” value was 8.44 ± 0.3.
For AAATTATATACCACAGTGCAAAAGGCAGGTATACGT, the “gcPBM binding intensity (ln)” value was 8.94 ± 0.3.
For TGTGTATATATGCTGGTGCAACTTTAAAAAATAATC, the “gcPBM binding intensity (ln)” value was 8.78 ± 0.042.
With “TATTATTTTAAGATTGTTTATGTAAAGAATTATGAA [CACACA_negctrl_site445]” the “gcPBM binding intensity (ln)” value was 8.05 ± 0.49.
